Assay results taken from PubChem BioAssay AID1963576 (National Center for Advancing Translational Sciences (NCATS), 2024).
About 60 (0.1%) of roughly 46,000 compounds were called active. Roughly 3% stayed inconclusive and do not appear here. Calls come from the whole dose curve; as a rule, active = well fitted inhibition curve with a large enough effect; inconclusive = small, poorly fitted or top-dose-only effect; inactive = no such curve, though single readings can be large or run the other way. Some of the results follow.

Assay: Primary qHTS assay for Inhibitors of ovarian cancer metastasis using an organotypic tumor microenvironment (TME) model.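 For activity change, negative = inhibition: plate controls were DMSO wells for no effect and tomatine positive control wells for full effect.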 Note: nearly all actives have a fitted effect of over 65% in size.
Conditions: SKOV3ip1-GFP adhesion/invasion on 3D omental model, fluorescence; series mostly up to 45.8 µM; activity change, negative = inhibition: at the top concentration
Summary of the method: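 Primary human omental fibroblast/mesothelial 3D culture pre-formed 48 h. SKOV3ip1-GFP cells added with compounds (0.36-46 umol/L), incubated 2 h RT/16 h 37 C, fixed; GFP cells quantified at 488/509 nm.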

outcome, inactive:
COc1ccc2oc(=O)c(C(=O)NCCc3c(C)[nH]c4ccc(C)cc34)cc2c1
COc1ccccc1NC(=O)Cn1cnc2ccc(S(=O)(=O)N3CCC(C)CC3)cc2c1=O
COc1ccc(N(CC(=O)N2CCN(c3ccccc3F)CC2)S(=O)(=O)c2c(C)noc2C)cc1
Cc1ccccc1NC(=O)C(Cc1ccccc1)N1Cc2ccccc2C1=O (centres undefined)
O=C(Nc1noc2ccccc12)c1cccc(Cl)c1Cl
Cc1ccc(NC(=O)C2CCCN(C(=O)c3cnn(-c4ccccc4)c3-n3cccc3)C2)cc1 (centres undefined)
COc1ccc(NC(=O)Cn2c(=O)n(Cc3ccco3)c(=O)c3sc4ccccc4c32)c(OC)c1
Cc1nn(-c2ccccc2)c(-n2cccc2)c1C(=O)N1CCN(c2ccccc2)CC1
Cc1cc(OCC(=O)N(Cc2ccc(N(C)C)cc2)Cc2ccco2)cc(C)c1Cl
Cc1c(Cl)cccc1NC(=O)c1cc(S(=O)(=O)N2CCCCC2)cn1C
COc1ccccc1/C=C/c1onc(C)c1S(=O)(=O)N1CCC(C(=O)N2CCC(C)CC2)CC1
Cc1ccc2oc(=O)c3cc(C(=O)Nc4ccc(C)c(F)c4)sc3c2c1
Cc1ccc(CCNc2nc3ccccc3c3nc(-c4cccnc4)nn23)cc1
Cc1ccc(C)c(CN2C(=O)c3ccccc3S(=O)(=O)c3ccc(C(=O)NCCc4ccc(Cl)cc4)cc32)c1
CCc1ccc(NC(=O)Cn2c(=O)nc(-c3ccccc3F)c3cc(Cl)ccc32)cc1
CN(C)c1ccc(CNC(=O)CCCN2C(=O)CCn3nc(-c4cn(C)c5ccccc45)cc32)cc1
Cc1cccc(C)c1NC(=O)C1CCCN1S(=O)(=O)c1cccc2nsnc12 (centres undefined)
Cc1ccc(Cn2cc(CCC(=O)NCC(C)c3ccccc3)c3ccccc32)cc1 (centres undefined)
COc1ccc(C2=NN(CCC(=O)NCCc3ccccc3)C(=O)CC2)cc1
CCc1cccc(-n2nnc(S(=O)(=O)c3ccc(OC)cc3)c2C)c1
Cc1nc2c(c(C)c1CCC(=O)Nc1ccc(F)cc1)c(=O)n(C)c(=O)n2C
CCN(CC)CCCNC(=O)CCc1c(C)nc2c(c1C)c(=O)n(C)c(=O)n2C
Cc1ccc(C)c(NC(=O)c2cnc3sc(N4CCOCC4)nn3c2=O)c1
COc1ccc(-c2cc(C(F)(F)F)nc(SCC(=O)Nc3ccc(O)cc3)n2)cc1OC
CCOc1ccc(CNC(=O)c2ccc(NC(=O)N3CCSc4ncccc43)cc2)cc1
Cc1ccc(NC(=O)c2cccc(NC(=O)N3CCSc4ncccc43)c2)cc1F
Cc1cccc(NC(=O)CCn2cnnn2)c1C
CCC(=O)N1c2ccccc2CC1C(=O)NCc1ccccc1Cl (centres undefined)
COc1cccc(N2CCN(C(=O)c3cc4cc5cc(C)ccc5nc4s3)CC2)c1
CCOc1ccc(-n2cc(-c3ccccc3)c3c(N4CCN(c5ccccc5OC)CC4)ncnc32)cc1

Activity change, negative = inhibition, inactive:
C[C@H](NC(=O)Cc1cc(F)cc(F)c1)C(=O)N[C@H](C(=O)OC(C)(C)C)c1ccccc1 19.7%
Cc1ccc(CNC(=O)c2cc3c(=O)oc4ccc(C)cc4c3s2)cc1 5.14%
COc1ccccc1-c1nc2c(c(SCc3cc(C)ccc3C)n1)Cc1c(CO)cnc(C)c1O2 2.66%
Cc1cccc(OCC(=O)Nc2ccc(S(=O)(=O)Nc3onc(C)c3C)cc2)c1C 2.55%
COc1ccc(CNC(=O)c2cc3sccc3n2Cc2ccc(F)cc2)cc1 -0.615%
COCCCN1C(=O)c2[nH]nc(-c3cc(C)ccc3O)c2C1c1ccc(F)cc1 (centres undefined) -12.4%
CN(C)c1ccc(O)c2c1C[C@H]1C[C@H]3[C@H](N(C)C)C(=O)C(C(N)=O)=C(O)[C@@]3(O)C(=O)C1=C2O -11.1%
CCOC(=O)c1ccc(OC(=O)c2cn(-c3ccc(C)cc3)c(=O)c3ccccc23)cc1 2.06%
CCc1nnc(NC(=O)CSc2nc3c([nH]c4ccccc43)c(=O)n2-c2ccc(F)cc2)s1 9.44%
Cc1ccccc1NC(=O)CSc1nc2ccc(NC(=O)CCc3ccccc3)cc2s1 -5.53%
COC(=O)c1sccc1S(=O)(=O)N(CC(=O)Nc1ccccc1C)c1ccc(Cl)cc1 5.98%
Cc1cccn2c(=O)cc(COc3ccc(NC(=O)C(C)C)cc3)nc12 -2.18%
Nc1ccc2oc(-c3ccccc3Br)nc2c1 2.82%
Cc1ccc(-n2nc(C)c3c(C)cc(=O)n(CC(=O)Nc4cc(Cl)ccc4C)c32)cc1 2.63%
Cc1cc(NS(=O)(=O)c2cn(C)c(C)n2)ccc1Br 23.8%
COc1cccc(C(=O)COC(=O)c2cc(-c3cccs3)nc3ccccc23)c1 0.357%
Cc1nc(-c2ccc(S(=O)(=O)NCc3ccc(F)cc3)cc2)co1 -10.6%
COc1ccc(C(=O)NCc2nc(-c3cccc(C)c3)no2)cc1OC 0.0309%
CCc1ccccc1NC(=O)C1CCN(c2nc3ccccc3[nH]2)CC1 4.87%
Cc1ccc(-n2nc(C)c(C(=O)NCCCN3CCN(c4cccc(Cl)c4)CC3)c2-n2cccc2)cc1 -20.3%
COc1cccc(CNC(=O)CCc2c(C)nc3c4c(C)cc(C)nc4nn3c2C)c1 -6.04%
Cc1ccccc1OCC(=O)Nc1nnc(SCc2cc(=O)n3cc(Cl)ccc3n2)s1 0.817%
O=C(Nc1ccc(Oc2ccccc2)cc1)c1ccc(F)c(S(=O)(=O)N2CCN(c3ccccc3F)CC2)c1 13.9%
Cc1cc(C)nc(-n2nc(C)c3c2N(Cc2ccccc2C)C(=O)CC3c2ccc(Cl)cc2)n1 (centres undefined) 8.13%
COC(=O)c1ccccc1N(C)S(=O)(=O)c1cc2c3c(c1)CC(=O)N3CCC2 -13%
CC(C)CCSc1nnc2n(-c3ccccc3)c(=O)c3c4c(sc3n12)CC(C)CC4 (centres undefined) -4.97%
CCOC(=O)c1c(C)[nH]c(C)c1S(=O)(=O)NCC(=O)NCc1cccc(Br)c1 2.65%
O=C(Cn1cc(S(=O)(=O)Cc2cccc(Cl)c2)c2ccccc21)NCc1ccccc1Cl -6.63%
Cc1ccc(S(=O)(=O)Nc2cccc(-c3ccc(N4CCCC4)nn3)c2)c(C)c1 -1.18%
COc1cccc(NC(=O)/C(C#N)=C/c2ccc(-c3ccc(C)cc3)o2)c1 4.79%
Cc1ccc2cc3cc(C(=O)N4CCN(c5ccccc5)CC4)sc3nc2c1 9.35%
N#Cc1ccccc1OCC(=O)N1CCN(c2ccccc2)CC1 9.2%
CCCN1CCN(CCCNC(=O)c2cc3c(s2)-c2ccccc2OC3)CC1 0.437%
CNc1nccc(-c2cccnc2Oc2cc(C(=O)Nc3cccc(C(F)(F)F)c3)ccc2C)n1 -0.781%
COCCn1c(C)cc(O)c(C(c2ccccc2Cl)N2CCCCC2)c1=O (centres undefined) -5.68%
Cc1coc2c(C)c3oc(=O)c(CCC(=O)N4CCCCC4)c(C)c3cc12 -8.45%
O=C(Cn1ccc2cc(S(=O)(=O)N3CCCCCC3)ccc21)NCc1cccc(Cl)c1 -13.2%
CCCNc1ncnc2c1c(-c1ccccc1)cn2-c1ccccc1 0.764%
CCS(=O)(=O)Nc1ccc2[nH]c(O)c(C(=Nc3ccc(CN4CCCCC4)cc3)c3ccccc3)c2c1 33.2%
COc1ccc(-c2nsc(NC(=O)c3oc4ccccc4c3C)n2)cc1 -8.31%
CCn1cc(C(=O)N2CCN(c3cccc(C)c3)C(C)C2)c(=O)c2cc(S(=O)(=O)N3CCOCC3)ccc21 (centres undefined) 3.16%
C[C@H](NC(=O)[C@@H](O)c1cc(F)cc(F)c1)C(=O)N[C@@H]1C(=O)N(C)c2ccccc2-c2ccccc21 -0.223%
COc1ccc(NC(=O)Cn2nnc(-c3nc(-c4ccncc4)no3)c2N)cc1OC 4.83%
COc1ccccc1CCNC(=O)C(=O)NCC(c1cccnc1)N1CCN(c2ccccc2)CC1 (centres undefined) 8.87%
COCCn1c(C)cc(O)c(C(c2ccccc2F)N2CCN(c3ccccc3)CC2)c1=O (centres undefined) 6.84%
Cc1c(NS(=O)(=O)c2ccc(Cl)cc2)c(=O)n(-c2ccccc2)n1C 7.29%
CCCN1C(=O)c2oc3cc(C)cc(C)c3c(=O)c2C1c1ccc(F)cc1 (centres undefined) -9.11%
Cc1cc(=O)c2cc(C(=O)Nc3cccc(C)c3C)ccc2[nH]1 -1.56%
COc1ccc(-c2nc3cc(NC(=O)COc4ccc(C)c(C)c4)ccc3o2)cc1 2.15%
N#Cc1c(C2CCNCC2)cc(-c2c(O)cccc2OCC2CC2)nc1N 14.6%
COc1ccc(-c2nc(CSCC(=O)NCCc3ccccc3)c(C)o2)cc1 -24%
COc1cc(OC)c(NC(=O)CCc2c(C)nc3ncnn3c2C)cc1Cl 16.6%
O=C(NC1(C(F)(F)F)C(=O)Nc2c1c(=O)[nH]c(=O)n2-c1ccc(Cl)cc1)c1ccccc1F (centres undefined) -1.42%
COc1ccc(Cn2cc(S(=O)(=O)c3ccc(Cl)cc3)c(=O)c3cc4c(cc32)OCO4)cc1 17.9%
Cc1ccccc1OCCn1c(-c2ccc(Cl)cc2)nc2ccccc2c1=O -0.34%
Cc1cccc(NC(=O)Cn2cc(C(=O)c3ccco3)c3ccccc32)c1 -8.63%
Cc1ccc(CNC(=O)c2ccc(Cn3c(=O)c4ccccc4n(CC(=O)Nc4ccc(C)cc4)c3=O)cc2)cc1 11.5%
O=C(Nc1cccc(Cl)c1)c1ccc2c(c1)CCN2S(=O)(=O)c1ccccc1 9.35%
COc1ccc(-c2noc(-c3cccnc3N3CCN(c4ccc(OC)cc4)CC3)n2)cc1 6.15%
CCCCN(CC)C(=O)CSc1c2c(nc3ccc(Cl)cc13)CCCC2 -4.06%
O=c1cc(-c2ccc(O)c(O)c2)oc2cc(O)cc(O)c12 -13%
CCOc1ccc(NC(=O)c2sc3nc4c(c(-c5ccc(OC)cc5)c3c2N)C(=O)CC(C)(C)C4)cc1 0.159%
COC(=O)c1c(NC(=O)/C(C#N)=C/c2ccccc2)sc2c1CCC2 -0.533%
COc1cccc(NC(=O)c2ccc(-c3nc(COc4ccccc4)c(C)o3)cc2)c1 1.58%
